Measurements reported in ChEMBL document CHEMBL1201862, “PubChem BioAssay data set” (2004).

The compounds below were run on NCI-H322M (assay: NCI tumour cell line growth inhibition, 48 h).
With `Cc1cc(N(CCC#N)CCC#N)ccc1C(=N/NC(=O)c1cc(Cl)ccc1O)/N=N/c1cccc(Cl)c1` the GI50 was inactive: 12.1 µM. For `NCCCN1CCN(CCCNc2ccc3ncn4c5ccccc5c(=O)c2c34)CC1`, the GI50 was inactive: 1.98 µM. `CCOC(=O)/C(C(=S)NCc1ccccc1)=C(/N)N1CCCC1` was tested, and the GI50 was inactive: > 100 µM. `COC(=O)c1ccc(NCc2c(O)ccc(O)c2Br)cc1Cl` was tested, and the GI50 was inactive: 54.2 µM. In the case of `COc1cc2c(SCCN(C)C)nc3ccccc3c2c2ccccc12`, the GI50 is reported as inactive: 1.65 µM. For `COc1ccc(/N=C(/SS/C(=N/c2ccc(OC)cc2)c2ccc([N+](=O)[O-])o2)c2ccc([N+](=O)[O-])o2)cc1`, the GI50 was inactive: 1.45 µM. `N#C/C(=C\c1cccc(O)c1)C(N)=O` was tested, and the GI50 was inactive: > 100 µM. For `COC(=O)CCC(=O)Nc1cc(C)ccc1C`, the GI50 was inactive: > 100 µM. `O=c1nc(NC2CCCCO2)ccn1CCO` (stereo not given) was tested, and the GI50 was inactive: > 100 µM. For `C=C1C(C[C@@H]2O[C@H]3C[C@H]4O[C@@]5(C[C@@H]6O[C@]7(C[C@H](C)[C@@H]8O[C@@H]9CC(C(O)CO)O[C@@H]9C[C@@H]8O7)C[C@H](C)[C@@H]6O5)C[C@H]4O[C@H]3[C@H](C)[C@H]2O)O[C@@H](CC[C@@H]2O[C@@H](CC[C@@]34CC5O[C@H]6C(O[C@H]7CC[C@H](CC(=O)OC)O[C@@H]7[C@@H]6O3)[C@H]5O4)CC2=C)C[C@H]1C` (stereo not given in full), the GI50 was active: 0.000273 µM. In the case of `CCCC(O)c1cn(C(NC(=O)c2ccccc2)P(=O)(OCC)OCC)nn1` (stereo not given), the GI50 is reported as inactive: > 100 µM. In the case of `COc1ccc2c(c1)CC[C@@H]1C2CC[C@]2(C)C(=O)N(CCN(C)C)C(=O)CC12` (stereo not given in full), the GI50 is reported as inactive: > 100 µM. In the case of `ON=C1CCC(c2ccccc2)CC1` (stereo not given), the GI50 is reported as inactive: > 100 µM. With `CCCCOC(C)(C)/C=C/C(O)[C@](C)(O)[C@H]1[C@H](O)C[C@@]2(C)[C@@H]3CCc4c(cc(OC5OC(CO)C(O)C(O)C5O)c(O)c4C)C3(C)C(=O)C[C@]12C` (stereo not given in full) the GI50 was inactive: > 100 µM. `O=S(=O)(O)c1ccc2c(/N=N/c3c(O)ccc4ccccc34)cccc2c1` was tested, and the GI50 was inactive: > 100 µM. In the case of `O=S1(=O)c2cnccc2N=C(NCc2cccc3ccccc23)N1c1ccccc1`, the GI50 is reported as inactive: > 90.6 µM. For `CC(Oc1ccc(OCC2CCCCC2)cc1)C(=O)OCC(=O)c1ccc(-c2ccccc2)cc1` (stereo not given), the GI50 was inactive: > 100 µM. With `CC(C)(C)OC(=O)NC(CCCCNC(=O)OCc1ccccc1)C(=O)NCCNc1ccc(NCCNC(=O)C(CCCCNC(=O)OCc2ccccc2)NC(=O)OC(C)(C)C)c2c1C(=O)c1ccccc1C2=O` (stereo not given) the GI50 was inactive: > 100 µM. In the case of `O=C1c2ccc3c4ccccc4n(Cc4ccccc4)c3c2C(=O)N1c1ccccc1`, the GI50 is reported as inactive: 25.8 µM. In the case of `O=C(Cc1ccccc1)NN1C(=O)C(Cl)C1c1cc(Br)ccc1O` (stereo not given), the GI50 is reported as inactive: 5.32 µM. In the case of `CC1=C(SCCO)C(=O)c2ccccc2C1=O`, the GI50 is reported as inactive: 15.1 µM. For `C/C(=N\NC(=S)N1CCN(c2ccccn2)CC1)c1ncccn1`, the GI50 was active: 0.00938 µM. For `CCNc1nnc(-c2ccccc2Nc2ccccc2-c2nnc(NCC)s2)s1`, the GI50 was inactive: 18 µM. In the case of `O=C1c2cccc3cc([N+](=O)[O-])cc(c23)C(=O)N1O`, the GI50 is reported as inactive: 26.2 µM. `C[C@@]1(O)C2CC3CC1(c1ccccc1)CC(/C3=N/O)/C2=N\O` (stereo not given in full) was tested, and the GI50 was inactive: > 100 µM. For `c1ccc(C2=Nc3cccc4cccc(c34)N2)cc1`, the GI50 was inactive: > 100 µM. For `Cc1ccc(S(=O)(=O)Nc2cccc3c(=O)nc[nH]c23)cc1`, the GI50 was inactive: > 100 µM. `CN(C)CCCOCCn1c2c(c3ccccc31)CCCC2` was tested, and the GI50 was inactive: 32.9 µM. In the case of `CCCCN(CCCC)C(=C(C(Cl)=C(Cl)Cl)[N+](=O)[O-])N(CCCC)CCCC`, the GI50 is reported as inactive: 48.8 µM. With `CC1(C)C2CC3C(C)(C2)C31c1cc(Cl)ccc1N` (stereo not given) the GI50 was inactive: 17.3 µM. With `CC#CC(OCC)(OCC)OCC` the GI50 was inactive: > 100 µM. With `Oc1ccc[nH]c1=[Se]` the GI50 was inactive: 87.1 µM. In the case of `O=C(Nc1ccccc1[N+](=O)[O-])c1ccccc1`, the GI50 is reported as inactive: > 100 µM. For `COc1cc([C@@H]2c3cc4c(cc3[C@@H](NC(=O)c3ccccc3)C3COC(=O)[C@@H]32)OCO4)cc(OC)c1O` (stereo not given in full), the GI50 was inactive: 12.5 µM. For `S=C(N/N=C(/c1ccccc1)c1ccccn1)Nc1ccccc1Cl`, the GI50 was active: < 0.01 µM. In the case of `CC(CNC(N)=O)NC(N)=O` (stereo not given), the GI50 is reported as inactive: > 100 µM. In the case of `O=C1/C(=C\c2cccc(Oc3ccccc3)c2)SC(c2ccccc2)N1c1ccc(Cl)cc1` (stereo not given), the GI50 is reported as inactive: > 100 µM. For `O=C(O)c1ccc(Nc2cnc3cc(C(F)(F)F)ccc3n2)cc1`, the GI50 was inactive: 57 µM. For `COC(=O)CCC(=O)NC1c2cccc3cccc(c23)Cn2c(=O)n(C)c(=O)n21` (stereo not given), the GI50 was inactive: > 100 µM. With `O=C(NN1C(=O)C(Cl)C1c1ccc(Cl)cc1)c1c(Cl)c(Cl)c(Cl)c(Cl)c1-c1nc2ccccc2[nH]1` (stereo not given) the GI50 was inactive: 27.2 µM. For `CN(c1ccccc1)C1C(=O)N(c2ccccc2)C1/C=C/c1ccccc1` (stereo not given), the GI50 was inactive: > 100 µM. With `CCn1ncc(Oc2c(Cl)cc(N)cc2Cl)c(Cl)c1=O` the GI50 was inactive: 46.8 µM. In the case of `Cc1ccc(C)n1-n1c(Cc2ccccc2)n[nH]c1=O`, the GI50 is reported as inactive: > 100 µM. For `O=C(O)CCc1nc2cc3ccccc3cc2[nH]c1=O`, the GI50 was inactive: > 100 µM. In the case of `Nc1nc(Cl)cc(NCCCCCCCCNc2cc(Cl)nc(N)n2)n1`, the GI50 is reported as inactive: 3.66 µM. For `CN(C)CCCNc1ncnc2c1ncn2C1OC(CO)C(O)C1O` (stereo not given), the GI50 was inactive: > 100 µM. With `COC(=O)/C=C(/C(=O)OC)c1c(C)cc2c(C)cc(C)cc(C)c1-2` the GI50 was inactive: 31 µM. In the case of `CN(C)c1cccc2c(S(=O)(=O)NCCN)cccc12` [DANSYL ETHYLENEDIAMINE], the GI50 is reported as inactive: > 100 µM. With `O=C(c1ccccc1)C1N=NCC1c1ccc([N+](=O)[O-])cc1` (stereo not given) the GI50 was inactive: 57.9 µM. With `CC(=O)C(C(=N)C#N)C(=O)Nc1ccccc1` (stereo not given) the GI50 was inactive: > 100 µM. For `CCc1cccc(CC)c1NC1=CC(=O)C(=O)c2ccccc21`, the GI50 was inactive: 17 µM. For `CCC/C(Cl)=N/OC(=O)Nc1cc(C(F)(F)F)ccc1OC`, the GI50 was inactive: 17.5 µM. With `C=C(N=[N+]=[N-])c1cn(C2CC(O)C(CO)O2)c(=O)[nH]c1=O` (stereo not given) the GI50 was inactive: > 100 µM. For `CCCCCCCCCCCCOC(=S)NC`, the GI50 was inactive: 20.6 µM. For `N=C1OC(c2cccc(Cl)c2)C(NNS(=O)(=O)c2ccccc2)=C1O` (stereo not given), the GI50 was inactive: > 100 µM. In the case of `COC(=O)C1=C(C(=O)OC)C2C(C)=CC(C)=CN2C(C#N)=C(SC)S1` (stereo not given), the GI50 is reported as inactive: 57.9 µM. With `CN1CCc2c(sc3ncn(Nc4ccc(Cl)cc4)c(=N)c23)C1` the GI50 was inactive: > 100 µM. `CSC1=C(C#N)C(=O)N(c2ccc(C)cc2)C(=O)C1C#N` (stereo not given) was tested, and the GI50 was inactive: > 100 µM. In the case of `C[N+](C)(C)CC(=O)N/N=C/c1oc(-c2cccc([N+](=O)[O-])c2)c(-c2cccc([N+](=O)[O-])c2)c1[N+](=O)[O-]`, the GI50 is reported as inactive: > 100 µM. For `COc1ccc(C2C(=O)C(Cl)N2Nc2nc(C)cc(O)n2)cc1OC` (stereo not given), the GI50 was inactive: 49.7 µM. In the case of `COc1cc2c(/C=C3/C(=O)Nc4ccc(O)cc43)c(Cl)[nH]c2cc1C`, the GI50 is reported as inactive: 1.82 µM. `CC(C)=CCC(O)[C@](C)(O)[C@H]1[C@H](O)C[C@@]2(C)[C@@H]3CCc4cc(O)c(OC5OC(CO)C(O)C(O)C5O)cc4C3(C)C(=O)C[C@]12C` (stereo not given in full) was tested, and the GI50 was inactive: > 100 µM. `Cn1ncc2c(=O)[nH]c(-c3ccccc3)nc21` was tested, and the GI50 was inactive: > 100 µM. For `COc1cc(-c2cc(O)c3ccccc3n2)cc(OC)c1OC`, the GI50 was inactive: > 75 µM. In the case of `O=C1C(Cl)C2(CC(/C=C/c3ccccc3)=NN2c2cccc(S(=O)(=O)O)c2)N1c1nc2ccccc2s1` (stereo not given), the GI50 is reported as inactive: 47.6 µM. For `CCOc1ccc(/N=N/S(=O)(=O)O)cc1`, the GI50 was inactive: > 100 µM. In the case of `CC(C)[C@](O)(C(=O)OCC1=CCN2CC[C@@H](O)[C@@H]12)[C@H](C)O`, the GI50 is reported as inactive: > 375 µM. In the case of `CCOC(=O)C1C(=O)C(=O)N2CCc3c([nH]c4ccccc34)C12` (stereo not given), the GI50 is reported as inactive: > 100 µM. With `COc1ccc(/N=N/C(=N\c2ccccc2)c2ccc(N(CCC#N)CCC#N)cc2)cc1` the GI50 was inactive: > 100 µM. `Cc1ccc(C)c2c1n1c(=O)n(C)c(=O)n21` was tested, and the GI50 was inactive: > 100 µM. `Cc1cc(Cl)ccc1Nc1sc(C(=O)c2cc3cc(Cl)ccc3o2)c(N)c1C#N` was tested, and the GI50 was inactive: 12.4 µM. In the case of `COC(=O)N/N=C(\C)CC(=O)Nc1ccc(Cl)cc1`, the GI50 is reported as inactive: > 100 µM. For `Cc1ccc(N2CCC3(CC2)OCCO3)cc1`, the GI50 was inactive: > 100 µM. For `COc1cc2c(cc1OC)[C@@H]1[C@H](C#N)C(=O)C(C)(C)N1CC2`, the GI50 was inactive: > 100 µM. `COc1cc(/C=C2\N=C(c3ccccc3)N(/N=C/c3cc4cc(C)ccc4nc3Cl)C2=O)cc(OC)c1OC` was tested, and the GI50 was inactive: > 100 µM. For `OCN(CO)c1ccc2c(c1)Cc1cc(F)ccc1-2`, the GI50 was inactive: 15.2 µM. With `CN1C[C@@H]2CC(=O)CC[C@@H]2C[C@H]1C#N` the GI50 was inactive: > 100 µM. In the case of `O=C1N/N=C\Nc2ccc(cc2)S(=O)(=O)c2ccc(cc2)/N=C\NNC1=O`, the GI50 is reported as inactive: > 100 µM. `Cc1cn2c(=O)c3ncn(C4OC(CO)C(O)C4O)c3n(C)c2n1` (stereo not given) was tested, and the GI50 was inactive: > 100 µM. With `O=C(NN1C(=O)C(Cl)C1c1ccccc1O)c1ccccc1O` (stereo not given) the GI50 was inactive: 3.4 µM. For `O=[N+]([O-])/C(C(Cl)=C(Cl)Cl)=C(\N1CCOCC1)n1nnc2ccccc21`, the GI50 was inactive: 16.8 µM. In the case of `CN(C)c1ccc(/C=C(\NC(=O)c2ccccc2)C(=O)NC(CC(=O)O)C(=O)O)cc1` (stereo not given), the GI50 is reported as inactive: > 100 µM. For `COc1ccc(C(O)CNC(=O)c2ccccc2)cc1` (stereo not given), the GI50 was inactive: > 100 µM. `O=C1Cc2c([nH]c3ccc(Br)cc23)-c2ccccc2N1` [KENPAULLONE] was tested, and the GI50 was inactive: > 100 µM. For `CC1C2CC(C(C3C(=O)C4CC3C(C)(C)C4C)C2=O)C1(C)C` (stereo not given), the GI50 was inactive: > 100 µM. With `CC1=C(C)C(=O)OC(C(C)(O)C2(O)CC3OC34C3CC(O)C56OC5C=CC(=O)C6(C)C3CCC42C)C1` (stereo not given) the GI50 was inactive: 6.28 µM. With `O=C(OC12CC3CC(CC(C3)C1)C2)c1ccc(NCc2cc(O)ccc2O)cc1` the GI50 was inactive: 7.19 µM. With `CCC(C)C(C(=O)N/N=C1/SCC(=O)N1C)C(=O)N/N=C1/SCC(=O)N1C` (stereo not given) the GI50 was inactive: > 100 µM. In the case of `CCN(CC)CCNC(=O)c1cc2cc(NC(=O)c3cc4cc(NC(=O)c5cc6cc([N+](=O)[O-])ccc6[nH]5)ccc4[nH]3)ccc2[nH]1`, the GI50 is reported as inactive: > 100 µM. `CCOC(=N)n1c(=O)n(C2=NCCN2)c2ccccc21` was tested, and the GI50 was inactive: > 100 µM.

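Step 1: Grow cells in 96-well plates. Step 2: Expose to compound for 48 hours at 5 concentrations. Step 3: Interpolate endpoints linearly; if unreached, use highest concentration. At the GI50, growth is halved.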 Active and inactive are the calls of the source. No stated cut-off is given here; in the data, active = GI50 up to about 1.1 µM and inactive = higher.
